These results are taken from PubChem BioAssay AID1745853 (National Center for Advancing Translational Sciences (NCATS), 2022).

SMILES strings stand for the structures. Some of the results follow. The main result of the screen is listed elsewhere. These columns were measured beside it and carry no call.

Common to all, as to test: Primary Screen for Target Class Profiling of Small Molecule Inhibitors of Methyltransferases
In test [1] the target is Glycine N-methyltransferase (Homo sapiens) (UniProt Q14749). To be noted: purified enzyme, MTase-Glo SAH luminescence; measured here: GNMT inhibition; at 40 µM; stronger effect = lower value. The method, boiled down: (§1)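 Each enzyme was assayed with SAM and its substrate. SAH formation detected by MTase-Glo luminescence; single-point 40 uM screen[…].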
In test [2] the target is Guanidinoacetate N-methyltransferase (Homo sapiens) (UniProt Q14353). The following applies: purified enzyme, MTase-Glo SAH luminescence; measured here: GAMT inhibition; at 40 µM; stronger effect = lower value. The method, boiled down:
as §1

The target of test [3] is Histamine N-methyltransferase (Homo sapiens) (UniProt P50135). To be noted: purified enzyme, MTase-Glo SAH luminescence; measured here: HNMT inhibition; at 40 µM; stronger effect = lower value. The method, boiled down: as §1
The target in test [4] is Nicotinamide N-methyltransferase (Homo sapiens) (UniProt P40261). To be noted: purified enzyme, MTase-Glo SAH luminescence; measured here: NNMT inhibition; at 40 µM; stronger effect = lower value. Put shortly: as §1
The target in test [5] is Phenylethanolamine N-methyltransferase (Homo sapiens) (UniProt P11086). To be noted: purified enzyme, MTase-Glo SAH luminescence; measured here: PNMT inhibition; at 40 µM; stronger effect = lower value. The method, boiled down: as §1
On the % scale 0 is the no-effect control and ±100 the full control effect.

For the compound `Cc1ccc(Cn2c(=O)c3ccccc3n3c(=O)n(Cc4ccccc4)nc23)cc1`, the activity change, negative = inhibition in test [1] was 0.023%; in test [2], 3.63%; in test [3], 2.35%; in test [4] it was 1.99%; in test [5], -2.05%.
On the same counts, the results for `O=C(O)CC1(CC(=O)N[C@@H]2C=C(C(=O)N[C@H]3CCCNC3=O)C[C@@H](O)[C@@H]2O)CCCC1` are -4.86%, -6.68%, -1.53%, -2.22% and -7.21%.
The matching figures for `O=C1OCCC1CCC(=O)N1CCc2c(nc(-c3ccccc3)[nH]c2=O)C1` (stereo not given): -6.52%, -10%, -3.88%, -14.6% and -22.5%.
On the same counts, the results for `CC(=O)c1ccc(NC(=O)N2C[C@@H]3C[C@H](C2)c2ccc(NC(=O)c4ccc(F)cc4)c(=O)n2C3)cc1` are -7.69%, -8.9%, -6.58%, -12.6% and -8.35%.
On to `CCOc1ccc(CN2C(=O)c3cc4sccc4n3CC2(C)C(=O)NC2CCCCC2)cc1` (stereo not given), for which the activity change, negative = inhibition was 3.74% in test [1]; 3.37% in test [2]; -0.765% in test [3]; 6.43% in test [4]; 3% in test [5].
Regarding `CC1(C(=O)NC2CCCCCC2)Cn2c(ccc2-c2ccco2)C(=O)N1Cc1cccc(F)c1` (stereo not given), the activity change, negative = inhibition in test [1] was -1.34%; in test [2] it was 4%; in test [3], -0.582%; in test [4], -5.18%; in test [5], -3.04%.
The matching figures for `COc1cccc(CNC(=O)C(C)n2ccc3cc(S(=O)(=O)N4CCCC4)ccc32)c1OC` (stereo not given): 6.28%, 0%, 2.06%, 6.4% and 1.93%.
On the same counts, the results for `CN(C)[C@H]1CCCCN(C(=O)c2cn(CCN3CCNCC3)nn2)C1` are -5.66%, -10.4%, -3.05%, -7.38% and -3.89%.
The matching figures for `Cc1cccc(NC(=O)CSc2nnc3n(CC(C)C)c(=O)c4ccc(Cl)cc4n23)c1`: -0.822%, 2.86%, 2.59%, -0.439% and -3.62%.
Consider `Cc1ccc(-c2n[nH]n3c2nc(=O)c2ccc(C(=O)NCCc4cccs4)cc23)cc1`, for which the activity change, negative = inhibition in test [1] is -12.7%; in test [2] it was 4.51%; in test [3] it was -3.09%; in test [4], -2.43%; in test [5] it was -1.43%.
The matching figures for `COc1ccc(CNC(=O)Cn2c(=O)oc3cc(S(=O)(=O)NCc4ccccc4)ccc32)cc1`: 12.3%, 2.23%, 12.3%, -1.87% and 7.92%.
The matching figures for `CC1CC(C)CN(S(=O)(=O)c2ccc3c(c2)oc(=O)n3CC(=O)NCc2ccco2)C1` (stereo not given): -8.67%, 4.62%, 1.07%, -10.7% and -7.69%.
On the same counts, the results for `COC(=O)c1cc2n(n1)CC(C)(C(=O)NC1CCC(C)CC1)N(Cc1ccc(OC)cc1)C2=O` (stereo not given) are 5.36%, 0.967%, 7.49%, 7.14% and 4.76%.
As for `CCN1CCN(C(=O)c2cn3cc(-c4cccnc4)sc3n2)CC1`, the activity change, negative = inhibition in test [1] is -8.07%; in test [2] it was -10.7%; in test [3], -6.05%; in test [4] it was -14.7%; in test [5] it was -6.89%.
The matching figures for `COc1cc(OC)cc(C(=O)Nc2ccc(Cl)c(-c3nc4ccc(N(C)C)cc4[nH]3)c2)c1`: -10%, -21.8%, -1.04%, -51.8% and -15.9%.
As to `COc1ccc(OC)c(CCN2C(=O)c3cc4ccccc4n3CC2(C)C(=O)NCc2ccccc2)c1` (stereo not given), the activity change, negative = inhibition was -7.77% in test [1]; 3.78% in test [2]; 0.613% in test [3]; 2.26% in test [4]; -2.38% in test [5].
`Cn1cnc2ccc(-c3ccncc3)nc2c1=O`: the activity change, negative = inhibition is -8.53% in test [1]; -10% in test [2]; -4.04% in test [3]; -8.55% in test [4]; -10.9% in test [5].
Turning to `O=C(NCC(=O)N1CCCC1)Nc1ccc2cnccc2c1`, the activity change, negative = inhibition in test [1] is -6.37%; in test [2], -6.63%; in test [3], -5.66%; in test [4], -15.6%; in test [5], -14.2%.
On the same counts, the results for `Cc1cc(C)cc(N2CCC(N)C2=O)c1` (stereo not given) are -1.85%, -1.6%, 0.023%, -1.11% and -5.37%.
Regarding `COc1cccc(CN2C(=O)c3cc(C(C)(C)C)nn3CC2(C)C(=O)NC2CCCCC2)c1` (stereo not given), the activity change, negative = inhibition in test [1] amounted to 1.51%; in test [2] it was 0%; in test [3], 5.71%; in test [4], 2.25%; in test [5], 2.54%.
On the same counts, the results for `O=C(NC1CCCCC1)c1ccc2c(=O)n(Cc3ccccc3)c3n[nH]c(=O)n3c2c1` are -4.5%, 0%, 0.062%, -22.5% and -9.13%.
The matching figures for `CCc1ccc(N2C(=O)c3cc4occc4n3CC2(C)C(=O)NC2CCCCC2)cc1` (stereo not given): 1.51%, 0%, 7.04%, 13.3% and 3.71%.
In the case of `COc1ccccc1CNS(=O)(=O)c1cc2[nH]c(=O)[nH]c2cc1C`, the activity change, negative = inhibition in test [1] stood at 13.8%; in test [2], 0%; in test [3], 12.9%; in test [4], 2.42%; in test [5], 3.56%.
In the case of `COc1ccccc1CNC(=O)C1(C)Cn2nc(-c3ccccc3)cc2C(=O)N1c1cccc(C)c1C` (stereo not given), the activity change, negative = inhibition in test [1] is 2.45%; in test [2], 3.54%; in test [3], 6.98%; in test [4], 5.81%; in test [5] it was -0.797%.
As to `O=C1CO[C@H]2CN(Cc3ccncc3)C[C@H]2N1Cc1ccc(F)cc1`, the activity change, negative = inhibition in test [1] was -6.14%; in test [2] it was -14.1%; in test [3], -4.74%; in test [4] it was -16.3%; in test [5] it was -5.72%.
With `Cc1ccc(CNC(=O)CCc2nnc3n(Cc4ccccc4Cl)c(=O)c4ccccc4n23)cc1`, the activity change, negative = inhibition in test [1] is 1.45%; in test [2] it was 1.01%; in test [3] it was 11.6%; in test [4] it was 15.9%; in test [5], 1.47%.
On the same counts, the results for `Cn1nc(-c2cccc(F)c2)c(N2CCCC2)c1NC(=O)NCc1ccccc1` are -4.33%, -0.937%, -1.39%, -4.26% and -7.23%.
On the same counts, the results for `CCCN1C(=O)c2cc(C(=O)NCc3cccc(OC)c3OC)nn2CC1(C)C(=O)NC1CCCC1` (stereo not given) are -2.05%, 2.21%, -1.03%, -6.65% and -6.64%.
The matching figures for `CCc1cccc(N2C(=O)c3cc(-c4ccc(OC)cc4)nn3CC2(C)C(=O)NCc2ccccc2OC)c1` (stereo not given): -0.529%, 2.22%, -0.217%, 0.161% and -7.13%.
